# Experimental data as given in PubChem BioAssay AID463173 (ICCB-Longwood Screening Facility, Harvard Medical School, 2010).
# Out of some 52,000 compounds screened, about 1,700 (3.3%) were called active. No stated cut-off is given here; in the data, active means survival mostly below about 52% (no sharp cut-off); inactive means mostly above about 56%. The list shows a part of the results.
# Test system: Wild type
# Assay: growth inhibition of S. aureus wild type versus tarO mutant, primary screen, teichoic acid synthesis inhibitors, RN4220, OD600 (AID 463173)
# Details: S. aureus RN4220 wild type/DeltatarO growth, OD600, 18 h, active compounds read low, screened at 18.75 µg/mL (by protocol)
row,SMILES,survival
1,CCOc1ccccc1CNC(=O)C1CCN(S(=O)(=O)c2cccc3nonc23)CC1,inactive: 63%
2,CCc1ccccc1NC(=O)C(CC)Sc1ncnc2c1sc1ccccc12 (centres undefined),inactive: 68%
3,Cc1ccc(NC(=O)CN2C(=O)C(c3ccc(F)cc3)=NC23CCCCC3)c(C)c1,inactive: 68%
4,O=C(CCCCCn1c(=O)[nH]c2ccccc2c1=O)NCc1cccc(Cl)c1,inactive: 66%
5,Cc1ccccc1OC(=O)c1snnc1C,inactive: 85%
6,O=C(Cc1ccccc1)N(Cc1cccnc1)c1nc2c(F)cccc2s1,inactive: 70%
7,O=C(Nc1ccc(Cl)cc1F)c1oc(=O)c2ccccc2c1-c1ccccc1,inactive: 73%
8,O=C(NCc1ccc(Cl)cc1)c1ccc(CSCc2cccc(Cl)c2)o1,inactive: 131%
9,CCOc1ccccc1NC(=O)CSc1nc2c(c(=O)[nH]1)CCC2,inactive: 106%
10,CCOc1cccc2cc(-c3cn4c(n3)sc3cc(C)ccc34)c(=O)oc12,active: -6%
11,CCNC(=S)N1CCN(CCN=CC2=C(O)CC(C)(C)CC2=O)CC1,inactive: 109%
12,COc1ccc(OCc2nc3ccccc3n2C(C)c2ccccc2)cc1 (centres undefined),active: -2%
13,Cc1ccnc(NS(=O)(=O)c2ccc(NC(=O)C(C)(C)Oc3ccc(Cl)cc3)cc2)n1,inactive: 61%
14,Fc1c(F)c(Oc2ccccc2)c(F)c(F)c1Oc1ccccc1,inactive: 129%
15,Cc1ccc(OCC(=O)Nc2cccc(OCc3cc(=O)n4ccccc4n3)c2)cc1C,inactive: 80%
16,Cc1cc(C)c2c(CC(=O)Nc3ccc(S(=O)(=O)N4CCCC(C)C4)cc3)coc2c1 (centres undefined),inactive: 84%
17,O=C(Cc1ccccc1)N1CCSC1=S,inactive: 109%
18,CCC(C(=O)Nc1ccc(C(=O)OC)cc1)n1nc(-c2ccc(C)cc2)c2c(c1=O)CCCC2 (centres undefined),inactive: 132%
19,O=S(=O)(c1ccc2oc(-c3cccnc3)nc2c1)c1ccc2oc(-c3cccnc3)nc2c1,inactive: 106%
20,CCOc1cc(C2Nc3ccccc3-c3nnc(SCc4ccccc4)nc3O2)ccc1OC (centres undefined),inactive: 69%
21,Cc1cc(Br)ccc1NC(=O)C(Cc1ccccc1)NS(=O)(=O)c1ccc(Br)s1 (centres undefined),inactive: 130%
22,C=C(C)Cn1c(SCC(=O)c2ccc(OC)cc2)nc2sc3c(c2c1=O)CCCC3,inactive: 49%
23,C#CCn1c(COc2ccccc2C)nc2ccccc21,inactive: 115%

row,SMILES,survival
1,COc1cccc(CNC(=O)c2cc3cccc4c3n2CC(C)S4)c1OC (centres undefined),inactive: 82%
2,Cc1ccc(-c2noc(-c3ccc(N4CCC(C)CC4)c([N+](=O)[O-])c3)n2)cc1,inactive: 85%
3,Cc1ccc(-n2cc(-c3ccccc3)c3c(NC4CCCC4)ncnc32)cc1,inactive: 64%
4,COc1cc2c(=O)c(S(=O)(=O)c3ccc(F)cc3)cn(Cc3ccccc3C)c2cc1OC,inactive: 86%
5,CCN(Cc1ccccc1)C(=O)C1CCN(c2ncnc3c2nc2n3CCCCC2)CC1,inactive: 57%
6,Cc1cccc(N(C)C(=O)CN2C(=O)COc3ccc(S(=O)(=O)N4CCCCCC4)cc32)c1,inactive: 95%
7,COc1cc(OC)c(OC)cc1CNCCSc1nnnn1-c1ccccc1,inactive: 85%
8,Cn1c(CNC(=O)CSc2n[nH]c(-c3ccccc3Cl)n2)nc2ccccc21,inactive: 83%
9,Cc1cc(Br)ccc1NC(=O)CCS(=O)(=O)c1cccc2nonc12,inactive: 95%
10,COc1ccc(Cl)cc1NS(=O)(=O)c1cc(-c2cc(C)no2)ccc1C,inactive: 82%
11,CCOC(=O)c1ccc(NC(=O)C2Cc3ccccc3CN2S(=O)(=O)c2ccc(Cl)cc2)cc1 (centres undefined),inactive: 86%
12,O=C(NCC(c1cccs1)S(=O)(=O)c1cccs1)c1ccccc1 (centres undefined),inactive: 70%
13,CC(NC(=O)Cn1ncc2c3ccccc3n(Cc3ccc(F)cc3)c2c1=O)c1ccccc1 (centres undefined),inactive: 85%
14,CCCCON1C(=O)c2cccc3cccc(c23)C1=O,inactive: 116%
15,CC(=O)c1sc2c(c1C)c(=O)n(-c1ccc(Cl)cc1)c(=O)n2Cc1ccc(Cl)cc1,inactive: 81%
16,Cc1cc(C)c(Cn2c(C)c(CNCCCc3ccccc3)c(C(=O)O)c2C)c(C)c1,inactive: 80%
17,CCOC(=O)c1c(NC(=O)c2noc3c2CC(C(C)(C)C)CC3)sc2c1CCCC2 (centres undefined),inactive: 88%
18,Cc1ccc(C)c(N2CCN(C(=O)CN3C(=O)COc4ccc(S(=O)(=O)N5CCCCCC5)cc43)CC2)c1,inactive: 90%
19,Cc1cccc(NC(=O)c2cnn(-c3ccccc3)c2-n2cccc2)c1C,inactive: 78%
20,COc1ccc(-c2cc(C(=O)Nc3c(C(=O)c4ccc(Cl)cc4)oc4ccccc34)no2)cc1,inactive: 86%
21,CC(=O)N1CCC(N(Cc2ccco2)C(=O)Nc2cccc(C)c2)CC1,inactive: 134%
22,CCOC(=O)c1cc2c(=O)n3ccccc3nc2n(CC2CCCO2)c1=NC(=O)c1cccc(C(F)(F)F)c1 (centres undefined),inactive: 119%
23,CCOC(=O)N1CCN(S(=O)(=O)N2CCCC(C(=O)NCc3cccc(OC)c3)C2)CC1 (centres undefined),inactive: 56%

row,SMILES,survival
1,CCC1CN(C(=O)N2CCC(C(=O)NCc3ccc(C)o3)CC2)c2cc(C)ccc2O1 (centres undefined),inactive: 90%
2,Cc1ccc2nc(NCCCNC(=O)c3cnccn3)c(C#N)cc2c1,inactive: 109%
3,CCOC(=O)c1cc2sc(C)cc2n1CC,inactive: 116%
4,O=C(NC1CC(=O)N(c2ccc(F)cc2)C1)c1cc2ccccc2o1 (centres undefined),inactive: 146%
5,CC(=O)N1CCCc2cc(S(=O)(=O)N3CCC(C(=O)NCCC(C)C)CC3)ccc21,inactive: 77%
6,O=C(Nc1c(C(=O)N2CCOCC2)cnn1-c1ccccc1)c1ccccc1F,inactive: 104%
7,CN1CCN(C(c2ccccc2)c2sc3nc(-c4ccco4)nn3c2O)CC1 (centres undefined),inactive: 59%
8,COc1ccccc1NC(=O)n1ncc2c(C)cccc21,inactive: 83%
9,CCOC(=O)c1nnc2c(-c3ccc(OC)cc3)c(C)nn2c1N,inactive: 123%
10,CC1CCc2nc(NC(=O)COc3ccc(C(C)(C)C)cc3)sc2C1 (centres undefined),inactive: 93%
11,O=S(=O)(Nc1cccc(-c2ccc(N3CCCCC3)nn2)c1)c1cccs1,inactive: 71%
12,COC(=O)C1=C(C)NC2=C(C(=O)c3ccccc32)C1c1cc2c(cc1Cl)OCO2 (centres undefined),inactive: 136%
13,Cc1cccc(CCn2c(=O)c3ccccc3n(Cc3cccc(F)c3)c2=O)c1,inactive: 82%
14,COc1ccc(OC)c(C2CC(=O)c3c([nH]c(C(=O)OCC4CCCCC4)c3C)C2)c1 (centres undefined),inactive: 95%
15,Cc1csc2nc(COC(=O)COc3ccccc3F)cc(=O)n12,inactive: 57%
16,COc1cc2c(cc1OC)-c1n[nH]c(=S)n1C(C)(C)C2,inactive: 56%
17,CC(=O)c1cccc(NC(=O)CCS(=O)(=O)c2cc(Br)cc3c2N(C(=O)C2CC2)CC3)c1,inactive: 123%
18,CCCC(=O)N1CC(=O)Nc2ccc(Cl)cc2C1c1ccc(F)cc1 (centres undefined),inactive: 75%
19,Cc1ccc2c(=O)c(C(=O)NC3CCCC3)c[nH]c2c1,inactive: 106%
20,CCS(=O)(=O)c1ncc(N(Cc2ccco2)Cc2sccc2C)c(C(=O)Nc2cc(C)ccc2C)n1,inactive: 121%
21,CCCn1c(=O)c2sccc2n2c(CCCC(=O)N3CCN(c4ccccc4)CC3)nnc12,inactive: 98%
22,NC(=O)CS(=O)(=O)c1ccc(Cl)cc1,inactive: 105%
23,COc1ccc(CCNC(=O)Cn2nnc(-c3ccc(C(F)(F)F)cc3)n2)cc1OC,inactive: 77%

row,SMILES,survival
1,Cn1c(C(=O)NCc2ccc(F)cc2)cc2c(=O)n(C)c3ccccc3c21,inactive: 97%
2,COc1ccc(C(=O)NCCc2sc(-c3cccc(F)c3)nc2C)cc1,inactive: 80%
3,COCCn1c(SCC(=O)Nc2ccc(F)c(Cl)c2)nc2c(oc3ccccc32)c1=O,inactive: 44%
4,CCCn1c(CCC(=O)O)ccc1-c1ccccc1,inactive: 111%
5,Cc1ccccc1NS(=O)(=O)c1ccc2[nH]cc(C(=O)N3CCCC3)c(=O)c2c1,inactive: 99%
6,Cc1nc2ccn(Cc3cccnc3)c(=O)c2cc1C(=O)Nc1ccc(OC(F)(F)F)cc1,inactive: 73%
7,O=C(Nc1ccccc1C(=O)OCc1cc(=O)n2nc(C3CC3)sc2n1)c1cccc(Cl)c1,inactive: 72%
8,Cc1sc2ncn(CC(=O)Nc3cccc(C(F)(F)F)c3)c(=O)c2c1S(=O)(=O)N1CCC(C)CC1,inactive: 92%
9,COc1cccc(C(=O)NC(=O)Nc2ccc(-c3cc(C(F)(F)F)nn3-c3ccccc3)cc2)c1,inactive: 140%
10,CCN1/C(=C/C=C2\SC(=S)N(C)C2=O)Oc2ccccc21,inactive: 104%
11,COc1ccc(C2c3c(-c4ccccc4O)n[nH]c3C(=O)N2Cc2ccco2)cc1 (centres undefined),active: 10%
12,CCOC(=O)C1=C(CN2CCN(c3ccccc3)CC2)NC(=O)NC1c1ccc(C)cc1 (centres undefined),inactive: 127%
13,Cc1ccc(Cl)cc1NC(=O)Cn1c(=O)c(CNc2ccccc2)cc2cc3c(cc21)OCCO3,inactive: 87%
14,CCCCn1c(-c2ccc(S(=O)(=O)N3CCOCC3)cc2)csc1=Nc1ccccc1,inactive: 54%
15,CCN(c1cccc(C)c1)S(=O)(=O)c1nnc(NC(=O)c2cccs2)s1,inactive: 26%
16,Cc1c(C(=O)Nc2ccccc2Br)oc2ccc(S(=O)(=O)N3CCCCC3)cc12,inactive: 71%
17,Cc1ccc(CSCC(=O)N2CCN(Cc3ccc4c(c3)OCO4)CC2)cc1,inactive: 106%
18,COc1ccc(-c2c(C)nn3c4c(cnc23)C(=O)CC(c2ccc(C)cc2)C4)cc1 (centres undefined),inactive: 141%
19,O=C(CCCSc1nc(-c2ccco2)cc(C(F)(F)F)n1)NC1CCCCC1,inactive: 113%
20,Cc1cccc(Cn2c(CN3CCC(C(=O)NCCc4ccccc4)CC3)cc3ccccc32)c1,inactive: 128%
